About 340 (0.77%) of roughly 44,000 compounds were called active. About 5% were inconclusive and are not listed. Calls follow the shape of the dose curve; as a rule, active = well fitted inhibition curve with a large enough effect; inconclusive = small, poorly fitted or top-dose-only effect; inactive = flat fitted curve, though single readings scatter. Some of the results follow.
Test: Acumen qHTS Assay for Inhibitors of the mTORC1 Signaling Pathway in MEF (Tsc2-/-, p53-/-) Cells: Sytravon;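 also: plate controls were DMSO for no effect and rapamycin for full effect; nearly all actives have a fitted effect of over 50% in size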
Details: phospho-rpS6 immunofluorescence/PI, 24 h; series mostly up to 38.3 µM; activity change, negative = inhibition: at the top concentration
Outline: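 Immunofluorescence of rpS6 phosphorylation in Tsc2-/-, p53-/- MEFs after 24 h compound exposure, normalized to propidium iodide signal. Activity is expressed as % positive cells, thresholded with 7.5 nM rapamycin.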

| SMILES | activity change, negative = inhibition |
| --- | --- |
| Cc1cc(C)cc(NC(=O)CSc2nc3c([nH]c4ccccc43)c(=O)n2-c2ccc(F)cc2)c1 | inactive: -3.34% |
| CNC(=O)C(=O)NCC(c1ccc2c(c1)OCO2)N1CCOCC1 (stereo unspecified) | inactive: -2.94% |
| CCOc1ccc(-c2cc(NC(=O)c3cccc(Cl)c3)c(C(=O)OC)s2)cc1 | inactive: -1.81% |
| CC1=C(C(=O)Nc2ccccc2)C(c2ccc(C)cc2)n2nc(SCc3ccccc3C)nc2N1 (stereo unspecified) | inactive: -6.55% |
| CCCOc1ccc(C(=O)Nc2nonc2-c2ccc(OCC)cc2)cc1 | inactive: -5.91% |
| COc1ccc(CNC(=O)C2=C(C)C(=O)OC23CCCCC3)cc1OC | inactive: -0.0621% |
| O=C(c1ccc(F)cc1F)N1CCC(c2nc(-c3ccc(S(=O)(=O)N4CCCC4)cc3)no2)CC1 | inactive: 2.95% |
| CCOC(=O)c1ccc(NC(=O)c2cn(-c3ccccc3)nc2-c2ccc(C)cc2)cc1 | inactive: -0.454% |
| CCCc1ccc(S(=O)(=O)N2CCC(c3nnnn3-c3ccc(OC)cc3)CC2)cc1 | inactive: -0.116% |
| Cc1oc2cc3oc(=O)c(CC(=O)N4CCCCC4)c(C)c3cc2c1C | inactive: 0.158% |
| CCOc1cc(C#N)c(NC(=O)c2ccc(OC)c(S(=O)(=O)N3CCN(c4ccccc4)CC3)c2)cc1OCC | inactive: 0.673% |
| CCCOc1ccc(CNC(=O)c2oc3ccc4c(c3c2C)C(=O)CC(C)(CC)O4)cc1 (stereo unspecified) | inactive: 2.4% |
| CSc1nc(-c2ccccc2Cl)nc2c1Cc1c(CO)cnc(C)c1O2 | inactive: 2.72% |
| COc1ccc(CNC(=O)Cn2c(=O)c3cccn3c3ccccc32)cc1 | inactive: -3.86% |
| CCc1nnc2c(N3CCN(c4cccc(C(F)(F)F)c4)CC3)nc3ccccc3n12 | inactive: -1.22% |
| COc1cccc(CNc2ncnc3onc(C)c23)c1 | inactive: -2.66% |
| O=C(Cn1c(=O)n(Cc2ccco2)c(=O)c2oc3ccccc3c21)Nc1ccc(F)c(Cl)c1 | inactive: 0.712% |
| CNc1ccc(-c2nc(-c3ccccc3C)no2)cc1[N+](=O)[O-] | inactive: 1.18% |
| c1ccc(-c2cc3ncc4c(n3n2)-c2ccccc2OC4)cc1 | inactive: 0.888% |
| COc1ccc(C2=C(C(C)=O)Sc3nnc(-c4ccc(Cl)cc4)n3N2C(C)=O)cc1OC | inactive: 2.39% |
| CN1CCN(CCCNC(=O)c2cnn(-c3ccc(F)cc3)c2-n2cccc2)CC1 | inactive: -7.18% |
| O=C(Nc1c(C(=O)N2CCN(c3ccccc3F)CC2)oc2ccccc12)c1ccco1 | inactive: 0.981% |
| O=C(NCCc1ccccc1)c1ccc2nc(N3CCCCC3)sc2c1 | inactive: 0.877% |
| CCCn1c2ccccc2c2cnn(CC(=O)NCCCN3CCCCC3)c(=O)c21 | inactive: -13.5% |

| SMILES | activity change, negative = inhibition |
| --- | --- |
| CCOc1ccc(NC(=O)c2sc3nc4c(c(-c5ccccc5)c3c2N)C(=O)CC(C)(C)C4)cc1 | inactive: -3.67% |
| Cc1ccc(S(=O)(=O)c2cnc(SCC(=O)Nc3ccc4c(c3)OCCO4)[nH]c2=O)cc1Cl | inactive: -0.48% |
| CCOc1cc(C2C(C(=O)OC)=C(C)NC3=C2C(=O)c2ccccc23)ccc1OC (stereo unspecified) | inactive: -3.7% |
| O=S(=O)(NCC(c1ccco1)N1CCOCC1)c1ccc(Br)cc1 (stereo unspecified) | inactive: 0.749% |
| Cc1ccccc1-c1ccnc2[nH]n(-c3ccccc3)c(=O)c12 | inactive: -3.14% |
| Cc1ccccc1NC(=O)c1cn(-c2ccccc2)nc1-c1ccccc1 | inactive: 2.56% |
| COc1ccc(OC)c(CN2CCN(S(=O)(=O)c3ccccc3)CC2)c1 | inactive: -16.7% |
| Cc1ccc2oc(C(=O)N(Cc3ccc(N(C)C)cc3)CC3CCCO3)c(C)c2c1 (stereo unspecified) | inactive: -13.7% |
| CCOC(=O)c1c(NC(=O)CSc2cn(CCNC(=O)c3cccc(C(F)(F)F)c3)c3ccccc23)sc2c1CCC2 | inactive: -13.4% |
| CC(NC(=O)C1CCN(S(=O)(=O)c2ccc(F)cc2)CC1)c1ccccc1 (stereo unspecified) | inactive: 7.61% |
| COc1cccc(C(=O)Nc2nc3ccc(S(=O)(=O)N4CCCC4)cc3s2)c1 | inactive: -7.11% |
| CC1CCC(N2CC(=O)N(C3CCCCC3)C(c3ccc(Cl)cc3)C2=O)CC1 (stereo unspecified) | inactive: 0.244% |
| CC(C)Oc1ccc(C(=O)N2CCC(c3nc4ccccc4o3)CC2)cc1 | inactive: -2.75% |
| COc1ccc(-c2cc(C(=O)Oc3ccc(C)cc3)c3ccccc3n2)cc1 | inactive: 4.28% |
| Cc1ccc(NS(=O)(=O)c2ccc(-c3cnc(C4CC4)o3)cc2)cc1N(C)C | inactive: -18.4% |
| CC(=O)Nc1ccc(NC(=O)CSc2nccn2Cc2ccc3c(c2)OCO3)cc1 | inactive: -2.4% |
| COc1cc(NC(=O)CSc2ncc3c(n2)-c2ccc(Cl)cc2N(Cc2ccccc2)S3(=O)=O)cc(OC)c1 | inactive: 3.27% |
| CC(C)c1ccc(NC(=O)CSC2=Nc3ccccc3C3=NC(CC(=O)NCc4cccs4)C(=O)N23)cc1 (stereo unspecified) | inactive: 1.3% |
| CN(C)CCNC(=O)C1CCN(c2ncnc3c2nc2n3CCCCC2)CC1 | inactive: -2.23% |
| O=C1CSC2(C(=O)N(Cc3ccccc3F)c3ccccc32)N1c1cccc(C(F)(F)F)c1 (stereo unspecified) | inactive: -2.98% |
| O=C(Cn1ncc2c3ccccc3n(Cc3ccc(Cl)cc3)c2c1=O)NCCC1=CCCCC1 | inactive: -1.47% |
| CCOc1ccccc1CNC(=O)CCc1c(C)nn(-c2ccc(N3CCCCC3)nn2)c1C | inactive: -13.3% |
| CCc1ccc(C(=O)COC(=O)C(Cc2c[nH]c3ccccc23)NC(=O)c2ccc(CC)cc2)cc1 (stereo unspecified) | inactive: -0.74% |
| COc1ccc(CNC(=O)c2cc3cc4ccc(C)cc4nc3o2)cc1 | inactive: -6.88% |

| SMILES | activity change, negative = inhibition |
| --- | --- |
| O=C(Cc1ccccc1)Nc1c(C(=O)c2ccccc2)oc2ccccc12 | inactive: 3.43% |
| Cc1ccc(NC(=O)CSc2nnc(-c3nnn(-c4ccc(F)cc4)c3C)o2)cc1Br | inactive: 0.441% |
| Cc1nc(-c2cccc(F)c2)sc1CCNC(=O)c1c(F)cccc1Cl | inactive: -2.28% |
| COc1cccc(N2CCN(C(=O)c3cc4c(s3)-c3c(C)cccc3OC4)CC2)c1 | inactive: -8.1% |
| CCCCn1c(=NC(=O)C(C)(C)Oc2ccc(Cl)cc2)c(C(=O)OCC)cc2c(=O)n3ccccc3nc21 | inactive: 1.45% |
| Cc1ccc(OCC(=O)Nc2nonc2-c2ccc(C)c(C)c2)cc1C | inactive: -0.314% |
| O=C(Nc1ccc(OC(F)(F)F)cc1)C(Cc1ccccc1)NS(=O)(=O)c1cccc2nsnc12 (stereo unspecified) | inactive: -9.75% |
| COc1ccccc1C(=O)Nc1cccc(C(=O)OCc2cc(=O)n3nc(C4CC4)sc3n2)c1 | inactive: 0% |
| CC(C)Cc1nn2c(=O)cc(COC(=O)CNC(=O)c3ccc(C(C)(C)C)cc3)nc2s1 | inactive: -5.21% |
| Cc1ccc(C)c(CNC(=O)c2ccc3c(c2)nc2n3CCOC2)c1 | inactive: 0% |
| COC(=O)c1ccc(C2c3c(oc4ccc(C)cc4c3=O)C(=O)N2Cc2ccc3c(c2)OCO3)cc1 (stereo unspecified) | inactive: 13.3% |
| Cc1ccc(S(=O)(=O)c2nnn3c2nc(NCc2ccc4c(c2)OCO4)c2sccc23)cc1 | inactive: 0.145% |
| CCOC(=O)c1c(Nc2ccc(O)cc2)nnc(-c2ccccc2)c1-c1ccccc1 | inactive: -8.88% |
| COc1cccc(CNC(=O)Cn2ccc3cc(S(=O)(=O)N4CCCC4)ccc32)c1OC | inactive: -13.7% |
| CCOC(=O)c1cnc2ccc(OC(F)(F)F)cc2c1Nc1ccccc1C(=O)O | inactive: -7.54% |
| CCC1Oc2ccc(C)cc2N(CC(=O)NCCc2ccccc2)C1=O (stereo unspecified) | inactive: 15.3% |
| Cc1ccc(NC(=O)CCCN2C(=O)COc3ccc(C)cc32)c(Cl)c1 | inactive: 0.128% |
| COc1cccc(/C=C/c2nc(C#N)c(N3CCCCCC3)o2)c1 | inactive: -11.9% |
| CCOC(=O)c1cnn2c(C(F)(F)F)cc(-c3ccc(Br)cc3)nc12 | inactive: 2.35% |
| COc1ccc(-c2cnc(C)o2)cc1S(=O)(=O)Nc1cccc(C(F)(F)F)c1 | inactive: -9.69% |
| O=C(Nc1cccc(C(F)(F)F)c1)C1CCN(S(=O)(=O)c2cccc3nsnc23)CC1 | inactive: -7.57% |
| O=C(Nc1ccc(OCc2cc(=O)n3c4c(sc3n2)CCCC4)cc1)c1ccc(F)cc1 | inactive: 0.659% |
| Cc1ccccc1-c1noc(CSc2nc(-c3ccc(F)cc3)cc(=O)[nH]2)n1 | inactive: -26.5% |
| COc1ccc(-n2nnnc2SCC(=O)NCCc2ccccc2)cc1 | inactive: 1.81% |

| SMILES | activity change, negative = inhibition |
| --- | --- |
| COC(=O)Cc1c(C)c2ccc3c(c2oc1=O)CN(Cc1ccc(C)cc1)CO3 | inactive: 0% |
| NC(=O)C1CCN(c2ncnc3c2cnn3-c2cccc(Cl)c2)CC1 | inactive: 6.44% |
| CC(C)COc1ccc(C(=O)Nc2onc3c2CCCC3)cc1 | inactive: -5.52% |
| Cc1ccc(NC(=O)Cn2nc(C(F)(F)F)c3c2CCC3)cc1C | inactive: -11.9% |
| CCOc1ccc(CCNC(=O)CCn2c(=O)c3cccn3c3ccc(F)cc32)cc1 | inactive: 4.19% |
| Cc1cccc(CNC(=O)CCCN2C(=O)c3cccnc3Oc3ccccc32)c1 | inactive: -15.5% |
| COc1ccc(-c2noc(-c3ccc(NCc4ccco4)c([N+](=O)[O-])c3)n2)cc1OC | inactive: -1.46% |
| CCc1ccc(N2CC(c3nc4ccccc4n3Cc3ccccc3C)CC2=O)cc1 (stereo unspecified) | inactive: 1.73% |
| CCOc1ccc(C(=O)NCCc2sc(-c3cccc(F)c3)nc2C)cc1OCC | inactive: -0.667% |
| O=C(CSc1oc(-c2cccs2)nc1S(=O)(=O)c1ccccc1)Nc1ccc(F)cc1 | inactive: -18% |
| CN(C(=O)CSc1nc2ccc(NC(=O)c3ccccc3)cc2s1)c1ccccc1 | inactive: -21.3% |
| Cc1ccc(C2=NN(CCC(=O)NCCc3cccc(C)c3)C(=O)CC2)cc1 | inactive: -1.55% |
| COc1ccc(Cn2c(NCC(C)C)nc3c2c(=O)n(C)c(=O)n3C)cc1 | inactive: 0.859% |
| CC(=O)Nc1cccc(-c2nnc(SCC(=O)c3ccc([N+](=O)[O-])cc3)o2)c1 | inactive: -3.8% |
| COc1ccc(OC)c(CNC(=O)c2cnc(N(C)C)nc2)c1 | inactive: 0% |
| CCOc1ccccc1/C=C/c1onc(C)c1S(=O)(=O)N1CCC(C(=O)N2CCCCC2)CC1 | inactive: 5.11% |
| CCOC(=O)CSc1nc(-c2ccc(OC)cc2)cc(C(F)(F)F)c1C#N | inactive: 8.05% |
| COc1cc(CN(C(=O)c2ccc(C)cc2)c2ccccn2)cc(OC)c1OC | inactive: 0.231% |
| Cc1ccc(-n2nc(C)c3c(C(=O)Nc4ccc(C)cc4Cl)cc(C)nc32)cc1 | inactive: -6.68% |
| O=C(Cn1nc2c(cc1=O)CCCC2)NCc1ccccc1 | inactive: -6.99% |
| COc1ccc(-n2nc(C(=O)N3CCN(c4cccc(C)c4)C(C)C3)c3c4ccccc4n(C)c3c2=O)cc1Cl (stereo unspecified) | inactive: 1.97% |
| Cc1ccccc1-c1noc(-c2ccc(NC3CCCC3)c([N+](=O)[O-])c2)n1 | inactive: 0.929% |
| O=S(=O)(c1ccc2nc(Nc3ccc(Br)cc3F)ccc2c1)N1CCCC1 | inactive: 1.37% |
| CCc1nnc(NC(=O)c2nc(SCc3ccc(F)cc3)ncc2Cl)s1 | inactive: -1.48% |

Reference: PubChem BioAssay AID493208 (National Center for Advancing Translational Sciences (NCATS), 2011)
